# “And” between values parts separate entries of the source, which are not always exact repeats. Identical values can stand only once. The full ranking holds about 2,900 compounds; the median of “IRF Lucia reporter activity, fold change vs agonist alone” is about 0.9, and the highest 2% start at about 2.8. Some of the results follow.
# Assays:
# RAW-Dual [1] = assay: IRF Lucia reporter activity, fold change vs agonist alone; cytotoxicity flag (confluency mask): not cytotoxic; higher = enhanced IRF activity
# In short: (§1)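 Cytotoxic wells were those whose IncuCyte confluency was below 70% of agonist controls in both mask sets. The cells were RAW-Dual macrophages at 50,000 cells/well in DMEM on 384-well plates, dosed with 50 nL of library stock by pin tool, stimulated with a PRR agonist 1 h later, and kept at 37 °C, 5% CO2 for 20 hours. IRF and NF-κB reporter activity, as fold change over agonist-alone wells, came from supernatant read by QuantiLuc luminescence and QuantiBlue absorbance, respectively.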
# RAW-Dual [2] = assay: IRF Lucia reporter activity, fold change vs agonist alone; higher = enhanced IRF activity; settings: library stock concentration (final ~1000-fold dilution): 10 mM, agonist: MPLA (TLR4) […]
# In short: as §1
# RAW-Dual [3] = assay: IRF Lucia reporter activity, fold change vs agonist alone; cytotoxicity flag (confluency mask): cytotoxic (confluency <70% of control); higher = enhanced IRF activity
# In short: as §1
# [4] = agonist: 3'3'-cGAMP (STING) 10 ug/mL
# [5] = cytotoxicity flag (confluency mask): not cytotoxic
# [6] = cytotoxicity flag (confluency mask): cytotoxic (confluency <70% of control)
structure (smiles),measurement,setting,value
COc1cccc2c1C(=O)c1c(O)c3c(c(O)c1C2=O)CC(O)(C(=O)CO)CC3OC1CC(N)C(O)C(C)O1.Cl (centres undefined) (library stock concentration (final ~1000-fold dilution): 10 mM),IRF Lucia reporter activity,RAW-Dual [1]; [4],0.00943
same,IRF Lucia reporter activity,RAW-Dual [1]; agonist: LPS (TLR4) 0.1 ug/mL,0.0132
COc1cccc2c1C(=O)c1c(O)c3c(c(O)c1C2=O)CC(O)(C(=O)CO)CC3OC1CC(N)C(O)C(C)O1.Cl (centres undefined),IRF Lucia reporter activity,RAW-Dual [2]; [5],0.0236
O=C1CCCC(=O)C1C(=O)c1ccc(C(F)(F)F)cc1[N+](=O)[O-] (library stock concentration (final ~1000-fold dilution): 10 mM),IRF Lucia reporter activity,RAW-Dual [1]; [4],0.976 and 1.1
same,IRF Lucia reporter activity,RAW-Dual [1]; agonist: LPS (TLR4) 0.1 ug/mL,1.13 and 1.21
O=C1CCCC(=O)C1C(=O)c1ccc(C(F)(F)F)cc1[N+](=O)[O-],IRF Lucia reporter activity,RAW-Dual [2]; [5],0.96
OCc1ccccc1OC1OC(CO)C(O)C(O)C1O (centres undefined) (library stock concentration (final ~1000-fold dilution): 10 mM),IRF Lucia reporter activity,RAW-Dual [1]; [4],1.03
same,IRF Lucia reporter activity,RAW-Dual [1]; agonist: LPS (TLR4) 0.1 ug/mL,0.965
OCc1ccccc1OC1OC(CO)C(O)C(O)C1O (centres undefined),IRF Lucia reporter activity,RAW-Dual [2]; [5],1.06
O=C(Nc1cnn2ccc(N3CCCC3c3cc(F)ccc3F)nc12)N1CCC(O)C1.O=S(=O)(O)O (centres undefined) (library stock concentration (final ~1000-fold dilution): 10 mM),IRF Lucia reporter activity,RAW-Dual [1]; [4],1.27
same,IRF Lucia reporter activity,RAW-Dual [1]; agonist: LPS (TLR4) 0.1 ug/mL,1.02
C=CC(=O)Nc1cccc(Oc2nc(Nc3ccc(N4CCN(C)CC4)cc3)nc3ccsc23)c1 (library stock concentration (final ~1000-fold dilution): 10 mM),IRF Lucia reporter activity,RAW-Dual [3]; [4],0.0156
same,IRF Lucia reporter activity,RAW-Dual [3]; agonist: LPS (TLR4) 0.1 ug/mL,0.184
CN(C)C1C(O)=C(C(N)=O)C(=O)C2(O)C(O)=C3C(=O)c4c(O)ccc(Cl)c4C(O)C3CC12.Cl (centres undefined) (library stock concentration (final ~1000-fold dilution): 10 mM),IRF Lucia reporter activity,RAW-Dual [1]; [4],0.915
same,IRF Lucia reporter activity,RAW-Dual [1]; agonist: LPS (TLR4) 0.1 ug/mL,1.4
CN(C)C1C(O)=C(C(N)=O)C(=O)C2(O)C(O)=C3C(=O)c4c(O)ccc(Cl)c4C(O)C3CC12.Cl (centres undefined),IRF Lucia reporter activity,RAW-Dual [2]; [5],0.919
NC(=O)c1cccc(N)c1 (library stock concentration (final ~1000-fold dilution): 10 mM),IRF Lucia reporter activity,RAW-Dual [1]; [4],1.05
same,IRF Lucia reporter activity,RAW-Dual [1]; agonist: LPS (TLR4) 0.1 ug/mL,1.05
NC(=O)c1cccc(N)c1,IRF Lucia reporter activity,RAW-Dual [2]; [5],1.05
Cc1ccc(-n2nc(C(C)(C)C)cc2NC(=O)Nc2ccc(OCCN3CCOCC3)c3ccccc23)cc1 (library stock concentration (final ~1000-fold dilution): 10 mM),IRF Lucia reporter activity,RAW-Dual [1]; [4],1.23
same,IRF Lucia reporter activity,RAW-Dual [1]; agonist: LPS (TLR4) 0.1 ug/mL,0.463
Cc1ccc(-n2nc(C(C)(C)C)cc2NC(=O)Nc2ccc(OCCN3CCOCC3)c3ccccc23)cc1,IRF Lucia reporter activity,RAW-Dual [2]; [5],0.572
CC(NCc1ccc(OCc2cccc(F)c2)cc1)C(N)=O (centres undefined) (library stock concentration (final ~1000-fold dilution): 10 mM),IRF Lucia reporter activity,RAW-Dual [1]; [4],0.896
same,IRF Lucia reporter activity,RAW-Dual [1]; agonist: LPS (TLR4) 0.1 ug/mL,1.34
CC(NCc1ccc(OCc2cccc(F)c2)cc1)C(N)=O (centres undefined),IRF Lucia reporter activity,RAW-Dual [2]; [5],1.1
CC(CN(C)C)Oc1nc(Nc2cc3cccc(Cl)c3cn2)cnc1C#N (centres undefined) (library stock concentration (final ~1000-fold dilution): 10 mM),IRF Lucia reporter activity,RAW-Dual [1]; [4],0.797
same,IRF Lucia reporter activity,RAW-Dual [1]; agonist: LPS (TLR4) 0.1 ug/mL,0.941
CC(=O)NC(CC(C)C)C(=O)NC(CC(C)C)C(=O)NC(C=O)CCCNC(=N)N (centres undefined) (library stock concentration (final ~1000-fold dilution): 10 mM),IRF Lucia reporter activity,RAW-Dual [1]; [4],1.13
same,IRF Lucia reporter activity,RAW-Dual [1]; agonist: LPS (TLR4) 0.1 ug/mL,0.948
CC(=O)NC(CC(C)C)C(=O)NC(CC(C)C)C(=O)NC(C=O)CCCNC(=N)N (centres undefined),IRF Lucia reporter activity,RAW-Dual [2]; [5],1.12
Cc1cc(OCc2nnc(SC3CCCC3)n2-c2cccnc2)ccc1-c1ccc(S(C)(=O)=O)cc1 (library stock concentration (final ~1000-fold dilution): 10 mM),IRF Lucia reporter activity,RAW-Dual [3]; [4],0.0369
same,IRF Lucia reporter activity,RAW-Dual [3]; agonist: LPS (TLR4) 0.1 ug/mL,0.697
Cc1cc(OCc2nnc(SC3CCCC3)n2-c2cccnc2)ccc1-c1ccc(S(C)(=O)=O)cc1,IRF Lucia reporter activity,RAW-Dual [2]; [6],0.905
CNC(=O)c1ccc(C)c(-n2c(C)cc(OCc3ccc(F)cc3F)c(Br)c2=O)c1,IRF Lucia reporter activity,RAW-Dual [2]; [5],1.4
CNC(=O)c1ccc(C)c(-n2c(C)cc(OCc3ccc(F)cc3F)c(Br)c2=O)c1 (library stock concentration (final ~1000-fold dilution): 10 mM),IRF Lucia reporter activity,RAW-Dual [1]; [4],1.28
same,IRF Lucia reporter activity,RAW-Dual [1]; agonist: LPS (TLR4) 0.1 ug/mL,1.1
CC(C)S(=O)(=O)c1ccc2nccc(Nc3ccc4scnc4c3)c2c1 (library stock concentration (final ~1000-fold dilution): 10 mM),IRF Lucia reporter activity,RAW-Dual [1]; [4],0.112
same,IRF Lucia reporter activity,RAW-Dual [1]; agonist: LPS (TLR4) 0.1 ug/mL,0.298
COc1cccc2c1C(=O)c1c(O)c3c(c(O)c1C2=O)CC(O)(C(C)=O)CC3OC1CC(N)C(O)C(C)O1.Cl (centres undefined),IRF Lucia reporter activity,RAW-Dual [2]; [6],0.0202
COc1cccc2c1C(=O)c1c(O)c3c(c(O)c1C2=O)CC(O)(C(C)=O)CC3OC1CC(N)C(O)C(C)O1.Cl (centres undefined) (library stock concentration (final ~1000-fold dilution): 10 mM),IRF Lucia reporter activity,RAW-Dual [3]; [4],0.0103
same,IRF Lucia reporter activity,RAW-Dual [3]; agonist: LPS (TLR4) 0.1 ug/mL,0.0116
CC(C)(F)CC(NC(c1ccc(-c2ccc(S(C)(=O)=O)cc2)cc1)C(F)(F)F)C(=O)NC1(C#N)CC1 (centres undefined) (library stock concentration (final ~1000-fold dilution): 10 mM),IRF Lucia reporter activity,RAW-Dual [1]; [4],1.04
same,IRF Lucia reporter activity,RAW-Dual [1]; agonist: LPS (TLR4) 0.1 ug/mL,1.09
CC(C)(F)CC(NC(c1ccc(-c2ccc(S(C)(=O)=O)cc2)cc1)C(F)(F)F)C(=O)NC1(C#N)CC1 (centres undefined),IRF Lucia reporter activity,RAW-Dual [2]; [5],1.16

# From the supplement of paper PMC10037445
